We go through 2 compounds from article PMC12436592 (Nature Communications, 2025).

Where “and” joins values, the source holds several entries; their conditions need not be identical. Equal values may be shown once. Further values from the same series stand in other lists.

The assay addresses T1, hP2X7R (Homo sapiens, UniProt Q99572).
T1 sequence (Q99572 1-595): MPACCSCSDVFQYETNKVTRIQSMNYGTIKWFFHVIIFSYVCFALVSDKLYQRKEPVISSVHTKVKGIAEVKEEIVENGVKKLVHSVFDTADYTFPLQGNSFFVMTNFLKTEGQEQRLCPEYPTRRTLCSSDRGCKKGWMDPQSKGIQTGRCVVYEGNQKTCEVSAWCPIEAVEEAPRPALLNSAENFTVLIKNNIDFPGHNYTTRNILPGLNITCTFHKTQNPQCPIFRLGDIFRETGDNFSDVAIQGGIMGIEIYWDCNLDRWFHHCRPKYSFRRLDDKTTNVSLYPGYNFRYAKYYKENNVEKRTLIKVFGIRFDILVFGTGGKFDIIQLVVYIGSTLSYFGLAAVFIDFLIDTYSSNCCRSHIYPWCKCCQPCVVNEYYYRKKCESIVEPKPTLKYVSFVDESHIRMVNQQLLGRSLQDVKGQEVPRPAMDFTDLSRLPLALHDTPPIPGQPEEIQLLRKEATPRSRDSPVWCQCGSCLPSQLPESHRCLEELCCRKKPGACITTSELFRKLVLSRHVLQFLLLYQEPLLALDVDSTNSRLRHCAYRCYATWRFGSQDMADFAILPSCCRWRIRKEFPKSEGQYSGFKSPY
Briefly: TEVC determination of antagonist binding kinetics in Xenopus oocytes. The settings on record: for on-rate to hP2X7R, Response [%]: time 4 min, single replicates. The class given is cell-based. More on the design: expressed in transfected cells; host or cells: Xenopus laevis oocytes injected with capped cRNA (modified pUC19 vector, T7). The method, then: Xenopus laevis frogs were from Nasco International (Fort Atkinson, WI) and kept at the Core Facility Animal Models (CAM) of the Biomedical Center (BMC) of LMU Munich, Germany (Az:4.3.2–5682/LMU/BMC/CAM) in accordance with the EU Animal Welfare Act. Ovaries were surgically extracted (ROB_54-011-AZ 2532.Vet_02-23-166), treated with collagenase (Nordmark, Uetersen, Germany 1.0–1.5 mg/mL, ≥2 at RT) and defolliculated (15-min treatment in Ca^2+-free oocyte Ringer (90 mM NaCl, 1 mM KCl, 2 mM MgCl2, 5 mM HEPES), respectively. 50 nL of cRNA (0.5 µg/µL) were injected using a Nanoject II injector (Science Products, Drummond) and oocytes were kept in ND96 (96 mM NaCl, 2 mM KCl, 1 mM MgCl2, 1 mM CaCl2, 5 mM HEPES, pH 7.4–7.5). The plasmid containing the hP2X7R was linearized with NotI-HF (NEB) and purified with the MinElute Reaction Cleanup Kit (Qiagen, Hilden, Germany). Capped cRNA was synthesized using the mMESSAGE mMACHINE™ T7 Transcription Kit (ThermoFisher Scientific, Schwerte, Germany) and dissolved in nuclease-free water (500 ng/µL). Injected oocytes were allowed to express for at least 36 hours.
Two-electrode voltage clamp recordings were performed at room temperature and a holding potential of −70 mV using a Turbo Tec-05X Amplifier (npi electronic, Tamm, Germany), a magnetic valve system, and CellWorks E 5.5.1 software. Currents were filtered at 1 kHz and digitized at 200 Hz. Electrode resistances were below 1.2 MΩ. […] Recordings were performed in ND96.
After obtaining reproducible agonist-evoked responses, solutions were switched to antagonist-containing recording solutions with and without ATP to determine association rates. Responses following antagonist application were normalized to the preceding, stabilized agonist responses. Dissociation was determined in 1- or 2 min intervals when currents were reduced to <10%. Association curves were fit to the data by the equation % Response = (100-Plateau)*exp(-kobs*Time) + Plateau, where Plateau indicates the response at equilibrium and kobs the experimentally determined on-rate. All data were analyzed using Prism software (GraphPad Software, Inc., Version 8.3.0, San Diego, CA) and are presented as means ± SD from at least three oocytes. […] The final concentration of DMSO in the recording solution was ≤1%.
Supplementary Fig. 10: Kinetics of ligands binding to the hP2X7R measured by TEVC. (A) […]
All data represented as mean ± S.D. with n=3, 7, 7, and 7 f or the experiments performed at 3 nM, 10 nM, 30 nM, and 100 nM […]
(B) Representative current traces for t he activation
(C) On- and off-r at e constants and Ki
Observed on- r at es kobs were determined by fitting the data (Fig. 4H, Supplementary Fig. 10A) to the function: % response = (100- Plateau)*exp(-kobs*time)+Plateau and plotted against the antagonist concentrations to obtain koff according to k obs=kon*F+koff. Assuming a (simplified) 1:1 binding model, of f-r at e constant koff and Ki values were estimated using the previous formulas as well as Ki=koff/kon. […]
determined by Ca2+ imaging (18 nM, Fig. 3B ) and the binding equilibrium reached at each […]
values of UB-MBX-46 c annot reflect an accurate value due to the nearly negligible dissociation on the timescale of the experiment. If k off was estimated based on the IC50 value (IC50 = koff/kon panel D), a more accurate koff value can be obtained. Numbers in square brackets are 95% Confidence Intervals. *values obtained from an extrapolated dose inhibition curve from D . (D) The plateau values, representing the binding equilibrium, were used to generate dose inhibition

In the case of `O=C(NNc1ccccc1Cl)C12CC3CC(CC(C3)C1)C2` [UB-MALT-P30], the “on-rate to hP2X7R, Response [%]” value by setting is: (30 nM) 30.6%; (100 nM) 1.4% and 0% and 4.1% and 14.5% and 10.6% and 12.6%.

In the case of `CC12CC3CC1(C)C1(C)CC3(C(=O)NNc3ccccc3Cl)CC21C` [UB-MBX-46], the “Response [%], on-rate to hP2X7R” value by setting is: (3 nM, 2 min) 87.6% and 93.8% and 93%; (3 nM, 4 min) 86.5% and 89.7% and 90%; (3 nM, 6 min) 84.6% and 85.5% and 87.3%; (3 nM, 28 min) 66.6% and 70%; (3 nM, 30 min) 66.7% and 64.7% and 63.7%; (10 nM, 2 min) 78.8% and 76.6% and 83.6% and 80.5%. Also, the “Response [%], on-rate to hP2X7R” value is, setting by setting: (10 nM, 4 min) 65.6% and 66.4% and 71.6% and 66.5%; (10 nM, 6 min) 54.7% and 52.1% and 57.7% and 54.3%; (30 nM, 2 min) 65.3% and 46.7% and 50.8% and 53.4%; (30 nM, 4 min) 45.3% and 24.9% and 29.9% and 32%; (100 nM, 2 min, 300 µM ATP pulses, single oocytes) 24.7% and 20.8% and 25.6% and 27.8%; (100 nM, 4 min) 6.2% and 6.1% and 5.5% and 9%. In addition, the “Response [%], on-rate to hP2X7R” value (100 nM, 6 min) was 2.1% and 1.9% and 1.8% and 3.6%.
